Consider four molecules from US8663679B2, “Compositions for improving breast health in women” (Abbott Laboratories, priority 2004, dated 2014).

Read-outs that look alike come from different tables or passages of the source.

Assay [1] relates to HECV endothelial cells. The settings on record: cited from earlier work.
Assay [2] concerns HECV endothelial cells.

With 17-β-estradial [estrogen], in the assay with HECV endothelial cells [1], the “tight junction function in endothelial cells (known effect)” value is “reduce tight junction function”.

In the case of `CCCCC/C=C\C/C=C\C/C=C\CCCCC(=O)O` [GLA, (Z,Z,Z)-6,9,12-octadecatrienoic acid], the “concentration of most effect on transendothelial resistance” value (“concentration of most effect” for short) in the assay on HECV endothelial cells [2] (HECV, tested at 10, 100, 200 μM) amounted to 100 µM.

Regarding `[I-].[K+]` [Iodine, potassium iodide], in the assay with HECV endothelial cells [2] (HECV, tested at 10, 100, 1000 ng/ml), the “concentration of most effect” value is 10 ng/mL.

With `O=[Se](=O)([O-])[O-].[Na+].[Na+]` [Selenium, sodium selenate], the “concentration of most effect” value with HECV endothelial cells [2] came out at 100 ng/mL.
